The supplement of paper PMC3334620
Over roughly 33,000 sequences, “E-score (-0.5 to 0.5)” has its median near -0.04; the highest 2% begin near 0.36. This is one part of the list.

biological target: T1, Hmlalpha2 (UniProt P0CY09); experiment: PBM E-score (8-mer binding enrichment) (E-score (-0.5 to 0.5)); higher = stronger / more preferred TF binding; most listed sequences are background and not binding sites; conditions: protein concentration: 200 nM; construct: GST-full length
T1 sequence: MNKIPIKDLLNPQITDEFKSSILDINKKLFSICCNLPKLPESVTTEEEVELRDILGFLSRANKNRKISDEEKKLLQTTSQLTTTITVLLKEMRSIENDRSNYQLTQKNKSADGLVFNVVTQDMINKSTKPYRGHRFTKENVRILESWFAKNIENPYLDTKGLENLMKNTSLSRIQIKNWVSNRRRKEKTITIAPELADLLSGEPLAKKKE
In short: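 E-scores (a modified Wilcoxon-Mann-Whitney statistic) were assigned by the Universal PBM Analysis Suite to every ungapped eight-base word pooled with its reverse complement. The input came from universal all-10-mer Agilent arrays made double-stranded by primer extension and probed with GST-tagged yeast transcription factors at about 100-200 nM. Fluorescent anti-GST detected bound protein, and masliner normalised the scans.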

Going from CGAAGAAG to AATCCGTC, the “PBM E-score” value rises from -0.0393 to -0.036.

Compared with ACTACCAC, CCTGAGCA is lower in “PBM E-score” value: -0.0168 for the first, -0.0367 for the second.

Compared with AGGATACA, CCTTGGAA is lower in “PBM E-score” value: 0.185 for the first, -0.0658 for the second.

Going from GTGGCGGA to CTAGTGCC, the “PBM E-score” value rises from -0.243 to -0.226.

Compared with GACAAGGA, AAACTCTT is lower in “PBM E-score” value: 0.144 for the first, -0.0255 for the second.

Going from CAGCCACG to ACAAGGCA, the “PBM E-score” value rises from -0.129 to 0.209.

Going from ACTACCTG to AGTCTCAA, the “PBM E-score” value falls from 0.0129 to -0.155.

First: GAGTGGCA
Second: GTACACAC
The “PBM E-score” value of the first is lower: -0.285 for the first, 0.357 for the second.

Going from TGCCCGAA to GAGAAGCC, the “PBM E-score” value falls from -0.0401 to -0.3.

Compared with ACGCCTTA, GAAGTCGC is lower in “PBM E-score” value: 0.0621 for the first, -0.0638 for the second.

First: CCACGGAA
Second: GTATCCGA
The “PBM E-score” value of the first is higher: 0.0643 for the first, 0.0458 for the second.

First: GAGCTACC
Second: CCAATAAG
The “PBM E-score” value of the first is higher: -0.059 for the first, -0.218 for the second.

Compared with GCTGTGCC, GGGTCCTA is lower in “PBM E-score” value: -0.165 for the first, -0.235 for the second.

First: ACTTCCAT
Second: CATTGACC
The “PBM E-score” value of the first is lower: -0.00346 for the first, 0.0381 for the second.

Compared with ATTTTCCA, CGACAACA is higher in “PBM E-score” value: 0.0919 for the first, 0.295 for the second.

Compared with GGTCGCAC, CTTCATAA is higher in “PBM E-score” value: -0.075 for the first, 0.037 for the second.

First: CCACTAGG
Second: AATACCGC
The “PBM E-score” value of the first is lower: -0.347 for the first, -0.00644 for the second.

Going from ACCGTATC to CATATAAG, the “PBM E-score” value rises from -0.15 to 0.103.

Compared with CGATTACC, AGGCTAAG is lower in “PBM E-score” value: -0.0336 for the first, -0.319 for the second.

Going from TCAGAGAA to CTTCGCTA, the “PBM E-score” value falls from 0.00131 to -0.049.

First: AGACAAAT
Second: AGTTCGAA
The “PBM E-score” value of the first is lower: 0.0751 for the first, 0.183 for the second.

Compared with CTTCGGTA, GCCTCTTA is higher in “PBM E-score” value: -0.141 for the first, -0.137 for the second.

First: CTCTCAAC
Second: CACTGACC
The “PBM E-score” value of the first is higher: 0.00577 for the first, -0.314 for the second.

First: GTAACAAA
Second: AACACAGG
The “PBM E-score” value of the first is higher: 0.253 for the first, 0.247 for the second.

Going from AGAGGATG to GGTATCGA, the “PBM E-score” value rises from -0.148 to -0.0151.

First: CTAATGCC
Second: ACCTCACG
The “PBM E-score” value of the first is lower: -0.151 for the first, -0.103 for the second.

Going from CGTGAACC to AGCGCACG, the “PBM E-score” value rises from -0.107 to -0.0292.

Compared with ACAGTAGG, ATTCAGTG is lower in “PBM E-score” value: -0.0374 for the first, -0.107 for the second.

First: AGACTATC
Second: AGGCGTGC
The “PBM E-score” value of the first is lower: -0.0837 for the first, -0.058 for the second.

Going from TAGGGAGA to ATTAGTTA, the “PBM E-score” value rises from -0.283 to 0.249.

Going from CAGCCGAC to TCCTTAGA, the “PBM E-score” value falls from -0.156 to -0.177.

Compared with AGACCTGA, CACGTCCA is higher in “PBM E-score” value: -0.155 for the first, 0.0842 for the second.

First: GAACACAA
Second: ATCGCGCA
The “PBM E-score” value of the first is higher: 0.319 for the first, -0.0535 for the second.

Going from AATATTAG to GCCTCTCC, the “PBM E-score” value falls from 0.0923 to -0.248.

Going from GTCATCAC to ATGCTGAA, the “PBM E-score” value rises from -0.196 to -0.0203.

Compared with AAGCCATC, ATCCCCTG is lower in “PBM E-score” value: 0.0432 for the first, -0.262 for the second.

Compared with ACTACAGA, ACTGCTTG is lower in “PBM E-score” value: 0.119 for the first, -0.00682 for the second.

Compared with TGATATAA, GAGGGAGC is lower in “PBM E-score” value: 0.0539 for the first, -0.252 for the second.

First: CCGGCGAG
Second: AGGTTTAA
The “PBM E-score” value of the first is lower: -0.287 for the first, 0.0644 for the second.

Going from AAAACGAG to CGTCAGTA, the “PBM E-score” value falls from 0.0153 to -0.115.

Going from ATACTCCC to AAGTAGTA, the “PBM E-score” value rises from -0.078 to 0.164.

First: ACCAAGAA
Second: CGCGAATC
The “PBM E-score” value of the first is higher: 0.0903 for the first, -0.00176 for the second.

Going from AGGATGAG to ATTTAGCA, the “PBM E-score” value rises from -0.105 to 0.191.

Compared with TAGCAGAA, TTCGAAAA is higher in “PBM E-score” value: -0.00976 for the first, 0.156 for the second.

Going from ACGTGGAA to CCTCTGGC, the “PBM E-score” value falls from 0.171 to -0.286.

First: AGGGAGAC
Second: GTTGCCCA
The “PBM E-score” value of the first is lower: -0.178 for the first, -0.108 for the second.

First: AGCTTGTG
Second: GTGCTACA
The “PBM E-score” value of the first is higher: 0.11 for the first, 0.106 for the second.

First: CTTGGCCC
Second: CATCTGCA
The “PBM E-score” value of the first is lower: -0.435 for the first, 0.0396 for the second.

Compared with GGATCCCC, GTAATCCA is higher in “PBM E-score” value: -0.428 for the first, 0.29 for the second.

First: CCGTTCAA
Second: AACGGAAG
The “PBM E-score” value of the first is lower: -0.0425 for the first, -0.0123 for the second.

First: AGAATCAA
Second: ACTCCATG
The “PBM E-score” value of the first is higher: -0.034 for the first, -0.0768 for the second.

First: CCGAAACC
Second: CACGCTAG
The “PBM E-score” value of the first is lower: -0.276 for the first, 0.00579 for the second.

Going from GGGCTAAC to AACTCATC, the “PBM E-score” value rises from -0.101 to 0.0672.

First: CGGCGTGC
Second: GCAGAGCC
The “PBM E-score” value of the first is higher: -0.18 for the first, -0.279 for the second.

Going from CTATTGCC to AACACTGA, the “PBM E-score” value rises from -0.27 to 0.141.

Going from AAGCGGCG to GAGTGGGC, the “PBM E-score” value falls from 0.00275 to -0.149.

Going from AATTCTGC to CACAACCA, the “PBM E-score” value rises from -0.061 to 0.136.

Going from TACATCAA to AGATTTGG, the “PBM E-score” value falls from 0.333 to -0.155.

Compared with CCGACTCG, CACTTCGC is higher in “PBM E-score” value: -0.274 for the first, -0.0471 for the second.

Compared with GCCTGTAC, CGACGAGA is lower in “PBM E-score” value: 0.101 for the first, -0.103 for the second.

First: CCGGCTCG
Second: CATGAAAA
The “PBM E-score” value of the first is lower: -0.166 for the first, 0.221 for the second.

Going from GGGAACCC to AAGTATCC, the “PBM E-score” value falls from -0.18 to -0.197.

First: AACTGTAG
Second: CGGACACG
The “PBM E-score” value of the first is lower: -0.0347 for the first, -0.0185 for the second.

Compared with AAATACAA, CGGGGGTC is lower in “PBM E-score” value: 0.347 for the first, -0.191 for the second.

Going from GCCAGCGA to AATAAGTC, the “PBM E-score” value rises from -0.134 to 0.047.

First: AGACCACT
Second: ACACTAGC
The “PBM E-score” value of the first is lower: -0.00203 for the first, 0.083 for the second.

Compared with AACTTATT, AACGGTTA is lower in “PBM E-score” value: 0.151 for the first, -0.0648 for the second.

Going from CTATGTTC to AACAGAGA, the “PBM E-score” value falls from 0.252 to -0.0298.

Going from ATGGGGCC to AATAGTAT, the “PBM E-score” value rises from -0.282 to 0.164.

Compared with CAATGAAG, CCATCAAC is higher in “PBM E-score” value: 0.083 for the first, 0.157 for the second.

Compared with TAACCTTA, GGTGGTGA is lower in “PBM E-score” value: -0.0868 for the first, -0.192 for the second.

First: CGTGTTCA
Second: AATATACA
The “PBM E-score” value of the first is higher: 0.369 for the first, 0.34 for the second.

First: ATTTAAAC
Second: GGCTGGAC
The “PBM E-score” value of the first is higher: 0.262 for the first, -0.303 for the second.

Going from CTCCTTAA to AGTCACTG, the “PBM E-score” value rises from -0.144 to -0.0556.

First: ATATGTCG
Second: ACGAACTC
The “PBM E-score” value of the first is higher: 0.17 for the first, 0.126 for the second.

First: ACAGTGCT
Second: ATCTCAAT
The “PBM E-score” value of the first is higher: 0.018 for the first, -0.0377 for the second.

Compared with CAGGACGG, ACGCTAAT is lower in “PBM E-score” value: -0.035 for the first, -0.0633 for the second.

Going from CTGTATTC to GCTCAAGA, the “PBM E-score” value falls from 0.255 to -0.289.

Compared with GGTGTGTA, CCGATGAG is lower in “PBM E-score” value: 0.423 for the first, -0.178 for the second.

Going from CCGAATCC to CCATTGCC, the “PBM E-score” value falls from -0.0238 to -0.198.

Compared with CGCTCGCC, AGTCTCCA is higher in “PBM E-score” value: -0.146 for the first, -0.0265 for the second.

Going from CTCCGCGA to CTCTTGCA, the “PBM E-score” value rises from -0.142 to -0.119.

Going from TAATGGCA to ACATCCTC, the “PBM E-score” value rises from 0.0593 to 0.084.

Going from ACCTTGAC to ATCTCACC, the “PBM E-score” value falls from -0.00098 to -0.126.

Going from ACCATGAT to GGGTAGAC, the “PBM E-score” value falls from -0.0585 to -0.301.

Compared with CGGCCAAG, CTAGTCAA is higher in “PBM E-score” value: -0.148 for the first, -0.13 for the second.
